# In the supplement of paper PMC10037445:
# In all, about 2,900 compounds were measured (“IRF Lucia reporter activity, fold change vs agonist alone”: median about 0.9, highest 2% from about 2.8 on). The list shows a part of the results.
# How the values were obtained:
# [1] = system: RAW-Dual; test: IRF Lucia reporter activity, fold change vs agonist alone; cytotoxicity flag (confluency mask): not cytotoxic; higher = enhanced IRF activity
# Method in brief: (§1)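 Cytotoxic wells were those whose IncuCyte confluency was below 70% of agonist controls in both mask sets. The cells were RAW-Dual macrophages at 50,000 cells/well in DMEM on 384-well plates, dosed with 50 nL of library stock by pin tool, stimulated with a PRR agonist 1 h later, and kept at 37 °C, 5% CO2 for 20 hours. IRF and NF-κB reporter activity, as fold change over agonist-alone wells, came from supernatant read by QuantiLuc luminescence and QuantiBlue absorbance, respectively.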
# [2] = system: RAW-Dual; test: IRF Lucia reporter activity, fold change vs agonist alone; higher = enhanced IRF activity; conditions: agonist: MPLA (TLR4) […]
# Method in brief: as §1
# [3] = system: RAW-Dual; test: IRF Lucia reporter activity, fold change vs agonist alone; cytotoxicity flag (confluency mask): cytotoxic (confluency <70% of control); higher = enhanced IRF activity
# Method in brief: as §1
# [4] = agonist: 3'3'-cGAMP (STING) 10 ug/mL
# [5] = library stock concentration (final ~1000-fold dilution): 10 mM, cytotoxicity flag (confluency mask): not cytotoxic
compound,measurement,setting,value
O=C1c2ccccc2C(=O)C1c1ccccc1 (library stock concentration (final ~1000-fold dilution): 10 mM),IRF Lucia reporter activity,[1]; [4],0.917
same,IRF Lucia reporter activity,[1]; agonist: LPS (TLR4) 0.1 ug/mL,1.02
O=C1c2ccccc2C(=O)C1c1ccccc1,IRF Lucia reporter activity,[2]; [5],0.972
Clc1ccc2c(c1)C(N1CCNCC1)=Nc1ccccc1O2 (library stock concentration (final ~1000-fold dilution): 2 mM),IRF Lucia reporter activity,[1]; [4],0.919
same,IRF Lucia reporter activity,[1]; agonist: LPS (TLR4) 0.1 ug/mL,1.1
Clc1ccc2c(c1)C(N1CCNCC1)=Nc1ccccc1O2,IRF Lucia reporter activity,"[2]; library stock concentration (final ~1000-fold dilution): 2 mM, cytotoxicity flag (confluency mask): not cytotoxic",1.25
O=C(O)CCc1nc(-c2ccccc2)c(-c2ccccc2)o1 (library stock concentration (final ~1000-fold dilution): 10 mM),IRF Lucia reporter activity,[1]; [4],0.889
same,IRF Lucia reporter activity,[1]; agonist: LPS (TLR4) 0.1 ug/mL,1.25
CC(=CC(=O)OCCCCCCCCC(=O)O)CC1OCC(CC2OC2C(C)C(C)O)C(O)C1O (stereo not given) (library stock concentration (final ~1000-fold dilution): 10 mM),IRF Lucia reporter activity,[1]; [4],0.919
same,IRF Lucia reporter activity,[1]; agonist: LPS (TLR4) 0.1 ug/mL,0.928
CC(=CC(=O)OCCCCCCCCC(=O)O)CC1OCC(CC2OC2C(C)C(C)O)C(O)C1O (stereo not given),IRF Lucia reporter activity,[2]; [5],1
Cc1ccc(S(=O)(=O)C=CC#N)cc1 (library stock concentration (final ~1000-fold dilution): 10 mM),IRF Lucia reporter activity,[3]; [4],0.0196
same,IRF Lucia reporter activity,[3]; agonist: LPS (TLR4) 0.1 ug/mL,0.0186
CN1CCC(NC(=O)Nc2ccc(C#N)cc2)CC1c1nc2ccccc2[nH]1 (stereo not given),IRF Lucia reporter activity,[2]; [5],0.958
CN1CCC(NC(=O)Nc2ccc(C#N)cc2)CC1c1nc2ccccc2[nH]1 (stereo not given) (library stock concentration (final ~1000-fold dilution): 10 mM),IRF Lucia reporter activity,[1]; [4],0.792
same,IRF Lucia reporter activity,[1]; agonist: LPS (TLR4) 0.1 ug/mL,0.74
C=C1C(CO)C(O)CC1n1cnc2c(=O)nc(N)[nH]c21 (stereo not given),IRF Lucia reporter activity,[2]; [5],1.01
C=C1C(CO)C(O)CC1n1cnc2c(=O)nc(N)[nH]c21 (stereo not given) (library stock concentration (final ~1000-fold dilution): 10 mM),IRF Lucia reporter activity,[1]; [4],0.949
same,IRF Lucia reporter activity,[1]; agonist: LPS (TLR4) 0.1 ug/mL,0.937
CC1(C(=O)Nc2ccc(F)nc2)CCCN1c1nc(Nc2cc(C3CC3)[nH]n2)c2cccn2n1 (stereo not given),IRF Lucia reporter activity,[2]; [5],0.238
CC1(C(=O)Nc2ccc(F)nc2)CCCN1c1nc(Nc2cc(C3CC3)[nH]n2)c2cccn2n1 (stereo not given) (library stock concentration (final ~1000-fold dilution): 10 mM),IRF Lucia reporter activity,[1]; [4],0.263
same,IRF Lucia reporter activity,[1]; agonist: LPS (TLR4) 0.1 ug/mL,0.365
COS(=O)(=O)[O-].COc1cc(N)cn[n+]1-c1ccccc1 (library stock concentration (final ~1000-fold dilution): 10 mM),IRF Lucia reporter activity,[1]; [4],1.03
same,IRF Lucia reporter activity,[1]; agonist: LPS (TLR4) 0.1 ug/mL,0.862
COS(=O)(=O)[O-].COc1cc(N)cn[n+]1-c1ccccc1,IRF Lucia reporter activity,[2]; [5],1.07
CN1CCC(=C2c3ccccc3CCc3sccc32)CC1.O=C(O)CC(O)C(=O)O (library stock concentration (final ~1000-fold dilution): 10 mM),IRF Lucia reporter activity,[3]; [4],0.494
same,IRF Lucia reporter activity,[3]; agonist: LPS (TLR4) 0.1 ug/mL,1.09
CN1CCC(=C2c3ccccc3CCc3sccc32)CC1.O=C(O)CC(O)C(=O)O,IRF Lucia reporter activity,"[2]; library stock concentration (final ~1000-fold dilution): 10 mM, cytotoxicity flag (confluency mask): cytotoxic (confluency <70% of control)",1.35
O=C1C[C@@H](c2ccc(O[C@@H]3O[C@H](CO)[C@@H](O)[C@H](O)[C@H]3O)cc2)Oc2cc(O)ccc21 (library stock concentration (final ~1000-fold dilution): 10 mM),IRF Lucia reporter activity,[1]; [4],0.0254
same,IRF Lucia reporter activity,[1]; agonist: LPS (TLR4) 0.1 ug/mL,0.0873
Nc1ccn(C2CSC(CO)O2)c(=O)n1 (stereo not given),IRF Lucia reporter activity,[2]; [5],0.954
Nc1ccn(C2CSC(CO)O2)c(=O)n1 (stereo not given) (library stock concentration (final ~1000-fold dilution): 10 mM),IRF Lucia reporter activity,[1]; [4],1.05
same,IRF Lucia reporter activity,[1]; agonist: LPS (TLR4) 0.1 ug/mL,1.09
Cc1c(Cl)cccc1Nc1ccccc1C(=O)O,IRF Lucia reporter activity,[2]; [5],0.957
Cc1c(Cl)cccc1Nc1ccccc1C(=O)O (library stock concentration (final ~1000-fold dilution): 10 mM),IRF Lucia reporter activity,[1]; [4],1
same,IRF Lucia reporter activity,[1]; agonist: LPS (TLR4) 0.1 ug/mL,0.84
Cc1cc2ncc(C(=O)NCC(C)(C)NCC(=O)N3CCCC3C#N)cn2n1 (stereo not given),IRF Lucia reporter activity,[2]; [5],1
Cc1cc2ncc(C(=O)NCC(C)(C)NCC(=O)N3CCCC3C#N)cn2n1 (stereo not given) (library stock concentration (final ~1000-fold dilution): 10 mM),IRF Lucia reporter activity,[1]; [4],1.04
same,IRF Lucia reporter activity,[1]; agonist: LPS (TLR4) 0.1 ug/mL,0.504
Cc1cc(C)c(CN2CCc3c(Cl)cc(-c4c(C)noc4C)c(Cl)c3C2=O)c(=O)[nH]1 (library stock concentration (final ~1000-fold dilution): 10 mM),IRF Lucia reporter activity,[1]; [4],0.847
same,IRF Lucia reporter activity,[1]; agonist: LPS (TLR4) 0.1 ug/mL,0.28
CC(C)(C)CC1NC(C(=O)NC2CCC(O)CC2)C(c2cccc(Cl)c2F)C12C(=O)Nc1cc(Cl)ccc12 (stereo not given) (library stock concentration (final ~1000-fold dilution): 10 mM),IRF Lucia reporter activity,[3]; [4],0.342
same,IRF Lucia reporter activity,[3]; agonist: LPS (TLR4) 0.1 ug/mL,3.33
NC(=O)c1cnc2[nH]ccc2c1NC1C2CC3CC1CC(O)(C3)C2 (stereo not given) (library stock concentration (final ~1000-fold dilution): 10 mM),IRF Lucia reporter activity,[1]; [4],0.00796
same,IRF Lucia reporter activity,[1]; agonist: LPS (TLR4) 0.1 ug/mL,0.0229
